By IC50 is meant the dose at which the fit gives 50% viability; where the fit passes the top or lowest dose, that dose stands as a limit. AUC is the area under the same curve over the 256-fold range up to the top dose, as a fraction; it is 1 without any effect and falls as sensitivity rises. For some of these results: Where the top dose is marked as inferred, it is not printed in the source and was worked back from the curve model. For some of these results: An entry number marks a drug with two screens in the source, which often give different values.
How the values were obtained:
Assay in all cases: Viability of human cancer cell lines after 72 h of drug (GDSC screen)
[1] = compound: C[C@@H](N)c1ccc(C(=O)Nc2ccnc3[nH]ccc23)cc1 [Y-39983]; details: top dose 20 µM; top dose inferred
Procedure: (§1)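 Human cancer cell lines in 384-well plates, medium with 10% serum, drug for 72 h over a 256-fold dose range (nine 2-fold or five 4-fold steps up to the top dose). Adherent lines were fixed and stained with the nucleic acid dye Syto60, suspension lines read with resazurin; signal relative to control wells, capped at 0 and 100%. One two-parameter sigmoid per drug and line, fitted in a mixed model over all curves with the slope shared within a line.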

[2] = compound: NC(=O)Nc1sc(-c2ccc(F)cc2)cc1C(N)=O [TPCA-1]; details: top dose 20 µM
Procedure: as §1

[3] = compound: C/C(=C\c1csc(C)n1)[C@@H]1C[C@@H]2O[C@]2(C)CCC[C@H](C)[C@H](O)[C@@H](C)C(=O)C(C)(C)[C@@H](O)CC(=O)O1 [Epothilone B]; details: top dose 0.032 µM; top dose inferred
Procedure: as §1

[4] = compound: CC(C)CC(=O)Nc1n[nH]c2c1CN(C(=O)C1CCN(C)CC1)C2(C)C [PHA-793887]; details: top dose 10.24 µM
Procedure: as §1

[5] = compound: CCCS(=O)(=O)Nc1ccc(F)c(C(=O)c2c[nH]c3ncc(Cl)cc23)c1F [PLX4720]; details: top dose 10 µM
Procedure: as §1

[6] = screen: GDSC drug entry 1371, top dose inferred

Cell Line | AUC [1] | IC50 [1] [µM] | AUC [2] | IC50 [2] [µM] | AUC [3] | IC50 [3] [µM] | AUC [4] | IC50 [4] [µM] | AUC ([5]; screen: GDSC drug entry 1036) | IC50 ([5]; screen: GDSC drug entry 1036) [µM] | AUC [5, 6] | IC50 [5, 6] [µM]
SAT (head and neck, adherent) | 0.962 | > 20 | 0.916 | > 20 | 0.807 | 0.0289 | 0.936 | > 10.2 | 0.912 | > 10 | 0.911 | > 10
SBC-3 (small cell lung carcinoma, adherent) | 0.881 | 17.7 | 0.847 | 12.7 | 0.454 | 0.00151 | 0.274 | 0.157 | 0.955 | > 10 | 0.988 | > 10
SBC-5 (small cell lung carcinoma, adherent) | 0.991 | > 20 | 0.977 | > 20 | 0.385 | 0.00103 | 0.993 | > 10.2 | 0.993 | > 10 | 0.993 | > 10
SCC-4 (head and neck, adherent) | 0.977 | > 20 | 0.926 | > 20 | 0.413 | 0.0011 | 0.962 | > 10.2 | – | – | 0.969 | > 10
SCC-9 (head and neck, adherent) | 0.971 | > 20 | 0.731 | 6.94 | 0.909 | > 0.032 | 0.631 | 1.63 | 0.952 | > 10 | 0.942 | > 10
SCC-25 (head and neck, adherent) | 0.973 | > 20 | 0.744 | 6.93 | 0.459 | 0.00152 | 0.828 | 7.47 | 0.984 | > 10 | 0.929 | > 10
SF295 (glioma, adherent) | 0.923 | > 20 | 0.95 | > 20 | 0.448 | 0.00143 | 0.905 | > 10.2 | 0.922 | > 10 | 0.856 | 9.09
SISO (cervix, adherent) | 0.967 | > 20 | 0.89 | > 20 | 0.611 | 0.00398 | 0.922 | > 10.2 | 0.975 | > 10 | 0.97 | > 10
SJRH30 (rhabdomyosarcoma, adherent) | 0.956 | > 20 | 0.958 | > 20 | 0.782 | 0.0139 | 0.761 | 3.75 | 0.984 | > 10 | 0.967 | > 10
SK-CO-1 (large intestine, adherent) | 0.844 | 13.1 | 0.813 | 10 | 0.724 | 0.00827 | 0.989 | > 10.2 | 0.981 | > 10 | 0.979 | > 10
SK-HEP-1 (liver, adherent) | 0.977 | > 20 | 0.794 | 8.51 | 0.426 | 0.00128 | 0.989 | > 10.2 | 0.883 | 9.44 | 0.899 | > 10
